Whole data set: some 33,000 sequences, median “E-score (-0.5 to 0.5)” near -0.012, cut for the highest 2% near 0.27. The list shows a part of the results.

The assay concerns the target T1, Vhr1 (UniProt P40522).
T1 sequence: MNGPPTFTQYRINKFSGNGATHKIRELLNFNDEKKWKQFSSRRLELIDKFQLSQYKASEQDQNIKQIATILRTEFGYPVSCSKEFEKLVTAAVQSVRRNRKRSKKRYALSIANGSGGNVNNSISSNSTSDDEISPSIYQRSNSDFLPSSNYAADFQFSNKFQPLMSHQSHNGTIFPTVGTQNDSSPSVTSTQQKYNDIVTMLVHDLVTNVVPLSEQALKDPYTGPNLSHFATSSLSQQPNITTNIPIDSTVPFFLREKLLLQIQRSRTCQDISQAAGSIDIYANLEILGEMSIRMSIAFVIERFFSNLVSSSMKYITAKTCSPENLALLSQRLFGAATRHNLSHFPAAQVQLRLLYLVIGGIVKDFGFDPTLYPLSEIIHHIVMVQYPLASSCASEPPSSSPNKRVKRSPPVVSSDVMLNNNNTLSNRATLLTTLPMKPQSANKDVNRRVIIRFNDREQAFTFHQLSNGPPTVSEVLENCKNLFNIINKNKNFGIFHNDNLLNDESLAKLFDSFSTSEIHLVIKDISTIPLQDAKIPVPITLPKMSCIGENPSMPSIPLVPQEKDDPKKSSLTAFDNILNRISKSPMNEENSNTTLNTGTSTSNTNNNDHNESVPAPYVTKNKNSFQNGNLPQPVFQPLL
Briefly: PBM E-score (8-mer binding enrichment) (E-score (-0.5 to 0.5)); higher = stronger / more preferred TF binding; most listed sequences are background and not binding sites. Conditions: protein concentration: 200 nM; construct: GST-full length. In a few lines: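 Each ungapped eight-base word and its reverse complement, pooled, received an E-score from the Universal PBM Analysis Suite. Underlying scans, normalised with masliner, recorded fluorescent anti-GST bound to GST-tagged yeast transcription factors. These were applied at about 100-200 nM to universal all-10-mer Agilent arrays double-stranded by primer extension.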
As for TGGGATAA, the “PBM E-score” value is -0.238.
For TCCTAGGA, the “PBM E-score” value is -0.242.
As to AACCGAAT, the “PBM E-score” value turned out to be 0.0718.
For the sequence ATCTGTCA, the “PBM E-score” value is -0.0327.
As for CTCGATTC, the figure is -0.161; as for GCAAGTAA, 0.0248.
As for ACTGAGAC, the figure is 0.0998; as for ATGGCTTC, 0.00791.
Under ATTACGCC stands 0.00227; under AAATATCC, -0.0568; under ACGCCGAC, 0.247.
For TCGGTTAA, the “PBM E-score” value was found to be 0.0423.
Consider CGGGTGGA, for which the “PBM E-score” value turned out to be 0.175.
With CTGCGAGC, the “PBM E-score” value was found to be 0.149.
As for CACCTTGG, the figure is 0.0454; as for GCAGGCTA, -0.168; as for ACGTGGGC, -0.129.
As for CTGCCGGA, the figure is -0.0516; as for ATTTCCGG, -0.0384.
Under ATCTTCAG stands 0.00377.
With GTGTGGCA, the “PBM E-score” value was -0.102.
Under AAATTGGT stands 0.0399; under TGGTTACA, 0.201.
In the case of ATACCTTC, the “PBM E-score” value is -0.0805.
As for ACCAGAAG, the figure is -0.0723; as for ACAGACTA, -0.209.
As to GTAAATTA, the “PBM E-score” value was -0.151.
As for CAGGCCGC, the figure is -0.136; as for ACCTTCAG, -0.0596; as for ATTCCAAT, -0.0586.
In the case of AAGGCGCG, the “PBM E-score” value is -0.099.
With ATGCAATC, the “PBM E-score” value came out at 0.149.
Consider ATGGACTA, for which the “PBM E-score” value stood at 0.125.
Turning to CGTATGAA, the “PBM E-score” value stood at 0.114.
For CTTCTTTA, the “PBM E-score” value is -0.166.
Under CACACGAA stands 0.135.
As for AAACCCGC, the figure is 0.0774; as for ATGCCGAG, 0.00505.
Under CCGGCTCA stands 0.0508.
For TCTCCCCA, the “PBM E-score” value came to 0.0293.
As for ATGCCGGA, the figure is 0.0298.
Under GGCCGGTA stands 0.19.
Under TAAGGGTA stands -0.14.
CAATAACC: the “PBM E-score” value was 0.139.
Under GAAACAGA stands -0.14.
Under TACCCACA stands 0.192.
Under TAGATTGA stands -0.0407; under ACTAAGCC, 0.0315; under CCATATCG, 0.245.
Consider ACCCTTCA, for which the “PBM E-score” value was -0.0667.
Under CCTTATAG stands 0.0603; under CACAGGTA, 0.0614.
For CTACCTAC, the “PBM E-score” value was determined as 0.00587.
Regarding CTGCCGGC, the “PBM E-score” value is -0.098.
For GTGGAACA, the “PBM E-score” value is -0.00567.
Under AACTACTT stands 0.035.
Under CAAGCGGG stands -0.0608; under GGGGTCAC, 0.14.
As for AGAAATTA, the figure is -0.11.
On to AGAGGAGA, for which the “PBM E-score” value was -0.123.
Under CAACGAAC stands -0.0458.
In the case of CAAGGACG, the “PBM E-score” value was -0.16.
As for ACCTAACA, the figure is 0.0407; as for GCTGCACA, 0.0702; as for ACTTGAGG, -0.11.
Consider GAAACGAC, for which the “PBM E-score” value came out at 0.089.
As for AAAAAAAC, the figure is -0.286.
Take ACCCCGTA: the “PBM E-score” value came to 0.0517.
Under CCTTTTTC stands -0.0918; under GTAGTTTA, -0.0732.
As for GAATAGCA, the figure is 0.00455; as for AGACAGTG, -0.0783.
As for AGACTTTA, the figure is -0.334; as for AGCACAGA, 0.124.
Take GAAATCTA: the “PBM E-score” value was -0.149.
As for ATGTCTGG, the “PBM E-score” value is 0.0869.
With AGAATTCT, the “PBM E-score” value was -0.0341.
Under CCTGTCGC stands -0.0335; under AGGGAATG, 0.0512; under GTGACAGA, -0.16.
As for ACTGAACG, the “PBM E-score” value was -0.142.
Under AACAGTAC stands 0.0913; under CTTGAGGC, -0.174.
As for ATTGTACA, the figure is -0.0219; as for TTATGCAA, 0.0181; as for AAGTACGC, -0.0238.

Source of the values: the supplement of paper PMC3334620.
